Data published in paper doi:10.1101/2025.02.04.636395.
No constants are given. Whether binding was seen depends on the method and setting. In cells and extracts the contact can be indirect. Some entries that bind do so weakly or less than the wild type. Sequences can lack the tags named with a protein.

Legend:
Experiment in all cases: co-IP; GFP-trap (GFP-nanotrap agarose) from lysates of transfected HEK293T cells; lysis in 0.5% NP-40, 100 mM Tris-HCl pH 7.5 in PBS (in dH2O for GFP-SNX17); 1 h at 4 °C; western blot of endogenous Retriever subunits, CCC subunits and RAB32 or of co-expressed mCherry-LRMDA
GFP-LRMDA D223A (human) = molecular target: T1, GFP-LRMDA D223A (human)
T1 sequence: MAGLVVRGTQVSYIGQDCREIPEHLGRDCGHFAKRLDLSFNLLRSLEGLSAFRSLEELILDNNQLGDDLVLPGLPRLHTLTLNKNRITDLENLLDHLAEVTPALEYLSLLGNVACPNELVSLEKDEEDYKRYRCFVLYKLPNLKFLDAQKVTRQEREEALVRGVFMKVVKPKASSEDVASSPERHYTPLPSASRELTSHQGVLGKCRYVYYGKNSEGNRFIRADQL

GFP-LRMDA F145D (human) = molecular target: T2, GFP-LRMDA F145D (human)
T2 sequence: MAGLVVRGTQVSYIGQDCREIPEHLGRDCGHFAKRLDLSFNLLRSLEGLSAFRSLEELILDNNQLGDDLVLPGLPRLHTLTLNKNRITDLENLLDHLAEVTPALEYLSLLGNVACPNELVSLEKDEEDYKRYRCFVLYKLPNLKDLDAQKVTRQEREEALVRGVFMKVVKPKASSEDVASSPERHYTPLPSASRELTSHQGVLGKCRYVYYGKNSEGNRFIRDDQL

GFP-LRMDA I221A (human) = molecular target: T3, GFP-LRMDA I221A (human)
T3 sequence: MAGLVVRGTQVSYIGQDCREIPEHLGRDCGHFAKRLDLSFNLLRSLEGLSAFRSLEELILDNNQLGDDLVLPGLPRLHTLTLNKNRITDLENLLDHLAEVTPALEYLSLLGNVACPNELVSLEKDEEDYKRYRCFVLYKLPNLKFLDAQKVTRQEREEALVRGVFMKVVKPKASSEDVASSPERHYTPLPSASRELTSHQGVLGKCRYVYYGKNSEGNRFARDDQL

GFP-LRMDA L189D (human) = molecular target: T4, GFP-LRMDA L189D (human)
T4 sequence: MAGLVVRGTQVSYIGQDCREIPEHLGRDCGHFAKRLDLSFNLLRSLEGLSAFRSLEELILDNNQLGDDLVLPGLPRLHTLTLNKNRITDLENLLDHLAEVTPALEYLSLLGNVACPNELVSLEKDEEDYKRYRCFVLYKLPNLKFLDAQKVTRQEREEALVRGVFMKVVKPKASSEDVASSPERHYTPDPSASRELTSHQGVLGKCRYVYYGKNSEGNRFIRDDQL

[1] = molecular target: T5, GFP-LRMDA R222stop (human)
T5 sequence: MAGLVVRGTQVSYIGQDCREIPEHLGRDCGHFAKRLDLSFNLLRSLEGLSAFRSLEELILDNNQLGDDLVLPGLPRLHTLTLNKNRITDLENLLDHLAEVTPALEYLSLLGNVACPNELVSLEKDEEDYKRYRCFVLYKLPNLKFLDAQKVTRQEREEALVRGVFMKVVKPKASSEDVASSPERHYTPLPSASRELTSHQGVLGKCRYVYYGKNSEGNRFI

GFP-LRMDA Y106D (human) = molecular target: T6, GFP-LRMDA Y106D (human)
T6 sequence: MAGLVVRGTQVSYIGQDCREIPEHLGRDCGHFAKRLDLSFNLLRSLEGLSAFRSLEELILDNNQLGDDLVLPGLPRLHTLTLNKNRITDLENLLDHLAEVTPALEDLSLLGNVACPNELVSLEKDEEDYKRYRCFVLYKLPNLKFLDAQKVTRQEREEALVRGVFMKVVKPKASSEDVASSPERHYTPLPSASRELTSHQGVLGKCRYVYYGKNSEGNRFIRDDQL

GFP-LRMDA^1–176 (human) = molecular target: T7, GFP-LRMDA^1–176 (human)
T7 sequence: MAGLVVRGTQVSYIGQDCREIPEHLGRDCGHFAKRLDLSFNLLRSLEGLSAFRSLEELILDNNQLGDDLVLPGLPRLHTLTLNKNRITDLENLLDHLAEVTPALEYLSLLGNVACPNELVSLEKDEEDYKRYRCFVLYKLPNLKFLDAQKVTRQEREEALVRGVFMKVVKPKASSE

binding (GFP-LRMDA D223A (human)): binds
binding (GFP-LRMDA F145D (human)): no binding
binding (GFP-LRMDA I221A (human)): binds
binding (GFP-LRMDA L189D (human)): binds
binding [1]: binds
binding (GFP-LRMDA Y106D (human)): no binding
binding (GFP-LRMDA^1–176 (human)): binds
B1: RAB32 (endogenous) (protein, UniProt Q13637 1-225)
chain: MAGGGAGDPGLGAAAAPAPETREHLFKVLVIGELGVGKTSIIKRYVHQLFSQHYRATIGVDFALKVLNWDSRTLVRLQLWDIAGQERFGNMTRVYYKEAVGAFVVFDISRSSTFEAVLKWKSDLDSKVHLPNGSPIPAVLLANKCDQNKDSSQSPSQVDQFCKEHGFAGWFETSAKDNINIEEAARFLVEKILVNHQSFPNEENDVDKIKLDQETLRAENKSQCC
